The values that follow come from article PMC3934934, “The Self-Interaction of a Nodavirus Replicase Is Enhanced by Mitochondrial Membrane Lipids” (PLoS ONE, 2014).

No constants are given. Whether binding was seen depends on the method and setting. In cells and extracts the contact can be indirect. Some binding calls cover weakened binding; strength is not graded here. For part of these data: Sequences can lack the tags named with a protein.

Test [1] deals with MBP-protA fragment aa 840–1014 (Wuhan nodavirus (WhNV)) (UniProt Q3KSM3). The experiment in a line: pull-down; only the target purified.
Test [2] shares this target. The experiment in a line: pull-down; MBP fusion protein (1 µM) held on amylose resin, His-tagged protein (1 µM) in vitro translated in rabbit reticulocyte lysate; room temperature, 4 hrs; no lipids; Western blot with anti-His; signals given as % of FL to FL protein A self-interaction; only the target purified. For orientation: Immunoblotting shows a protein as a band on a membrane.

Test [3] addresses MBP-protA fragment aa 660–839 (Wuhan nodavirus (WhNV)) (UniProt Q3KSM3). Nature of the test: pull-down; only the target purified.
The target is the same in test [4]. Nature of the test: pull-down; MBP fusion protein (1 µM) held on amylose resin, His-tagged protein (1 µM) in vitro translated in rabbit reticulocyte lysate; room temperature, 4 hrs; no lipids; Western blot with anti-His; signals given as % of FL to FL protein A self-interaction; only the target purified.
Test [5] concerns the target T1, MBP-protA fragment aa 255–480 (Wuhan nodavirus (WhNV)) (UniProt Q3KSM3).
T1 sequence: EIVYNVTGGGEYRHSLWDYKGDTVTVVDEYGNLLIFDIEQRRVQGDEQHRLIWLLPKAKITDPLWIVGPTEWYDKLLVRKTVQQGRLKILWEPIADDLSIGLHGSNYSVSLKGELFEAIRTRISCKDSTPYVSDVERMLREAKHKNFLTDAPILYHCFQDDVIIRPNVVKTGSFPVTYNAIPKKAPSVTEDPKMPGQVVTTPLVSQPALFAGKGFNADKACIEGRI
The experiment in a line: pull-down; only the target purified.

For test [6], the target named is T2, MBP-protA fragment aa 1–254 (Wuhan nodavirus (WhNV)) (UniProt Q3KSM3).
T2 sequence: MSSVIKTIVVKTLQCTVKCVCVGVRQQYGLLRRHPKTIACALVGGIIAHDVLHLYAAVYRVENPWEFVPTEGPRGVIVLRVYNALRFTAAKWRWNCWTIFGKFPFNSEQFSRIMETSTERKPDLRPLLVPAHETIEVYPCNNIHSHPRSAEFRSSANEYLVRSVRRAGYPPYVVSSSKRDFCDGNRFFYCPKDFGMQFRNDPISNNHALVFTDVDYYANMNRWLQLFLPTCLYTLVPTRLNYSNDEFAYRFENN
Nature of the test: pull-down; only the target purified.

Test [7] deals with MBP-protA fragment aa 481–839 (Wuhan nodavirus (WhNV)) (UniProt Q3KSM3). The experiment in a line: pull-down; MBP fusion protein (1 µM) held on amylose resin, His-tagged protein (1 µM) in vitro translated in rabbit reticulocyte lysate; room temperature, 4 hrs; no lipids; Western blot with anti-His; signals given as % of FL to FL protein A self-interaction; only the target purified.

The target in test [8] is T3, MBP-tagged full-length (FL) WhNV protein A (Wuhan nodavirus (WhNV)) (UniProt Q3KSM3).
T3 sequence: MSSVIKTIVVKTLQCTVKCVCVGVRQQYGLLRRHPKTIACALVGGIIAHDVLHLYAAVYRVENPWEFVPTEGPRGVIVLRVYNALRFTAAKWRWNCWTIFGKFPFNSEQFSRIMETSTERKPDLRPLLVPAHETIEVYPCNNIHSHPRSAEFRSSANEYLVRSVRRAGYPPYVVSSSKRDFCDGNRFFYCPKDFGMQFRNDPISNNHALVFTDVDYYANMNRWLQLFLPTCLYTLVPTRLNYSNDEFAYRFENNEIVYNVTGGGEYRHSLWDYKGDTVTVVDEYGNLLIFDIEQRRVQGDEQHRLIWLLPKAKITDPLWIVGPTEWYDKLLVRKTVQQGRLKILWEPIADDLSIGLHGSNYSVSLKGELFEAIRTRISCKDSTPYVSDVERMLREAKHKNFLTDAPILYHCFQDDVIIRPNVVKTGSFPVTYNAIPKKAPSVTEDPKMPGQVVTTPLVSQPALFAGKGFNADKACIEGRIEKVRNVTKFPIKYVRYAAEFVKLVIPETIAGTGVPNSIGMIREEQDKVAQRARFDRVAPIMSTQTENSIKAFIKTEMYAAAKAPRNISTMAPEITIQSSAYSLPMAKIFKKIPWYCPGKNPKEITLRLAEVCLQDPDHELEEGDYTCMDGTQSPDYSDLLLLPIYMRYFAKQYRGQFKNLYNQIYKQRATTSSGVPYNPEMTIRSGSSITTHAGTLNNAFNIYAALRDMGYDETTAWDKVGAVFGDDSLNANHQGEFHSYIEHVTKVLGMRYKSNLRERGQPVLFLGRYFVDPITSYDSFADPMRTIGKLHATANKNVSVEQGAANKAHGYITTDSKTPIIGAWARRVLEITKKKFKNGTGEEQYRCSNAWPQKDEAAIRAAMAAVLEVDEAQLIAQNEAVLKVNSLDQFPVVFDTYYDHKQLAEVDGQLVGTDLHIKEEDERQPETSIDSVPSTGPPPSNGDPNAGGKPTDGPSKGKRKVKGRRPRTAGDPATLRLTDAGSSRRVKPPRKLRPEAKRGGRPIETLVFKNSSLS
The test is described as above.

The target in test [9] is MBP-protA fragment aa 255–659 (Wuhan nodavirus (WhNV)) (UniProt Q3KSM3). The test is described as above.
Test [10] has as its target MBP-protA fragment aa 660–1014 (Wuhan nodavirus (WhNV)) (UniProt Q3KSM3). The test is described as above.
Test [11] has as its target MBP-protA fragment aa 840–1014 (Wuhan nodavirus (WhNV)) (UniProt Q3KSM3). The test is described as above. This is another data set of the same source.
Test [12] deals with MBP-protA fragment aa 255–1014 (Wuhan nodavirus (WhNV)) (UniProt Q3KSM3). The description is as above.
Test [13] has as its target MBP-protA fragment aa 255–839 (Wuhan nodavirus (WhNV)) (UniProt Q3KSM3). Described as above.
The target in test [14] is MBP-protA fragment aa 481–1014 (Wuhan nodavirus (WhNV)) (UniProt Q3KSM3). Described as above.
The target in test [15] is MBP-protA fragment aa 660–839 (Wuhan nodavirus (WhNV)) (UniProt Q3KSM3). Described as above. The source holds these as a separate data set.

For “His-protA fragment aa 840–1014, in vitro translated (from UniProt Q3KSM3 840-1014) (domain or fragment)”, the binding result in test [1] and in test [2] was “no binding” throughout.
In the case of “His-protA fragment aa 660–839, in vitro translated (from UniProt Q3KSM3 660-839) (domain or fragment)”, the binding entry in test [3] and in test [4] was “no binding” in each case.

B1: His-protA fragment aa 481–659, in vitro translated (domain or fragment)
chain: EKVRNVTKFPIKYVRYAAEFVKLVIPETIAGTGVPNSIGMIREEQDKVAQRARFDRVAPIMSTQTENSIKAFIKTEMYAAAKAPRNISTMAPEITIQSSAYSLPMAKIFKKIPWYCPGKNPKEITLRLAEVCLQDPDHELEEGDYTCMDGTQSPDYSDLLLLPIYMRYFAKQYRGQFKN
notes: source: in vitro translated in nuclease-treated rabbit reticulocyte lysates
As for B1, the binding entry in [5] and in test [6] was “binds” throughout.

B2: His-protA fragment aa 1–254, in vitro translated (domain or fragment)
chain: T2 sequence
notes: also called 1–254 His/protA; wt protein A fragment aa 1–254; source: in vitro translated in nuclease-treated rabbit reticulocyte lysates
On to B2, for which, in test [6], the binding result is on record as “binds”.

B3: His-protA fragment aa 255–480, in vitro translated (domain or fragment)
chain: T1 sequence
notes: as for B1
Regarding B3, the binding result in [5] and in test [6] was “binds” each time.

B4: His-tagged WhNV protein A, in vitro translated (natural protein)
chain: T3 sequence
notes: also called His-protA; FL His-protA; source: in vitro translated in nuclease-treated rabbit reticulocyte lysates
Take B4: the binding entry in [7] is “binds”; in test [8] it was “binds”; in [9] it was “binds”; in test [10], “no binding (tested: 1 µM)”; in test [11] it was “no binding (tested: 1 µM)”; in test [12], “binds”. Besides, the figures for the binding result in [13], in test [14] and in test [15] were “binds”, “binds” and “no binding (tested: 1 µM)”, respectively.
